Reference: US20260209297A1, “ANTIMICROBIAL PEPTIDES AND MODIFICATIONS THEREOF” (priority 2022, published 2026)
Residues, ends and D or L forms follow the SMILES beside them.

Tested on: B. cinerea
Test: Semi-in planta gray mold assay on detached Nicotiana benthamiana leaves (drop inoculation)
Format: in vivo, Botrytis cinerea
Details: compared with GMA4C_AC or GMA4C_V2A

Row | SMILES | reducing gray mold disease symptoms caused by B. cinerea
1 | CC[C@H](C)[C@H](NC(=O)[C@H](CCCNC(=N)N)NC(=O)[C@@H](NC(=O)[C@H](CS)NC(=O)[C@H](Cc1ccccc1)NC(=O)[C@H](CS)NC(=O)[C@H](CCCNC(=N)N)NC(=O)[C@H](CCCNC(=N)N)NC(=O)[C@H](CCCNC(=N)N)NC(=O)[C@H](Cc1ccccc1)NC(=O)CNC(=O)[C@H](CCCCN)NC(=O)[C@H](CS)NC(=O)[C@H](CCCNC(=N)N)NC(=O)CNC(=O)CN)[C@@H](C)O)C(=O)N[C@@H](CS)C(N)=O [GMA4C_V1A] (H-GGRCKGFRRRCFCTRIC-NH2; N-terminus assumed) | more potent
2 | CC[C@H](C)[C@H](NC(=O)[C@H](CCCNC(=N)N)NC(=O)[C@@H](NC(=O)[C@@H](NC(=O)[C@H](Cc1ccccc1)NC(=O)[C@@H](NC(=O)[C@H](CCCNC(=N)N)NC(=O)[C@H](CCCNC(=N)N)NC(=O)[C@H](CCCNC(=N)N)NC(=O)[C@H](Cc1ccccc1)NC(=O)CNC(=O)[C@H](CCCNC(=N)N)NC(=O)[C@H](CS)NC(=O)[C@H](CCCNC(=N)N)NC(=O)CNC(=O)CN)C(C)C)C(C)C)[C@@H](C)O)C(=O)N[C@@H](CS)C(N)=O [GMA4C_V3A] (H-GGRCRGFRRRVFVTRIC-NH2; N-terminus assumed) | more potent
